Hit rate of the full screen: of about 110,000 compounds, about 230 (0.21%) showed an effect of 50% or more. The list shows a part of the results.
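Also: 30 min substrate incubation versus DMSO and 10 µM JCP410 controls.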

The target of the experiment is DPAP1 (Plasmodium falciparum, UniProt Q8IIJ9). The experiment can be described thus: primary screen, percent inhibition; read by cleavage of a fluorogenic dipeptide substrate; higher = more effect of the substance. Details: species or system P. falciparum D10 trophozoite lysates; single well.
Chain of DPAP1 (Q8IIJ9 whole entry, looked up): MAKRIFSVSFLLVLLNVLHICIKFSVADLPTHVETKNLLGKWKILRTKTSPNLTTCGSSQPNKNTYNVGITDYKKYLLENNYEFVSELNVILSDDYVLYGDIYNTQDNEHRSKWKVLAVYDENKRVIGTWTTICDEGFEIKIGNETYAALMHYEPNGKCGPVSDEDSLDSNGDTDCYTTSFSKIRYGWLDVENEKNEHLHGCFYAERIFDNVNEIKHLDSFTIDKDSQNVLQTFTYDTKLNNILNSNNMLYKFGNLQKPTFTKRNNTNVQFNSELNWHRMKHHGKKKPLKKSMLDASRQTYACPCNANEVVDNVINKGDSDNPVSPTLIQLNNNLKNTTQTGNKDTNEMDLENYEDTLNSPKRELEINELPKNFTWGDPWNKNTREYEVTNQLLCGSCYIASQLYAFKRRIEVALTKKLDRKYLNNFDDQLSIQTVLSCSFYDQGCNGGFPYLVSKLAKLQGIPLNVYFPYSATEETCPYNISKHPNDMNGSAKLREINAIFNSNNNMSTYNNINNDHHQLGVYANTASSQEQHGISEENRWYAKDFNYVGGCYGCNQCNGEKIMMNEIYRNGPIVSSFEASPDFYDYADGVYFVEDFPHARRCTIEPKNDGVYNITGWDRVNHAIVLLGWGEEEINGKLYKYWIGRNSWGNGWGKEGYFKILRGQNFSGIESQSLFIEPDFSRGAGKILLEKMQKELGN
In the case of `CCC1=C(c2ccc(C)cc2)S(=O)(=O)N=C1N1CCC(C(=O)NCc2ccc(CC)cc2)CC1`, the “% Inhibition @ 10 uM” value is -0.0309%.

On to `COc1ccc(C2C(C(=O)c3ccccc3)=C(O)C(=O)N2CC(=O)O)c(OC)c1` (centres unmarked), for which the “% Inhibition @ 10 uM” value is reported as -7.45%. As for `CC1CC(O)N(C(=O)c2ccccc2)N1Cc1ccccc1` (centres unmarked), the “% Inhibition @ 10 uM” value is given as -1.99%. The figure for `CCOc1ccc(N2C(=O)C3C(c4ccc(F)cc4)OC4(C(=O)c5ccccc5C4=O)C3C2=O)cc1` (centres unmarked) is -4.6%; for `O=C(NCCSCc1ccccc1)c1cc(S(=O)(=O)N2CCOCC2)ccc1F` it is -0.256%; for `COc1ccc(-c2c(C(C)=O)c(C)nc3sc4c(Cl)nc(C)nc4c23)cc1` it is 1.27%.

As to `c1sc2c(c1CN1CCC3(CC1)OCCO3)CCCC2`, the “% Inhibition @ 10 uM” value is on record as 2.03%.

For the molecule `COc1ccc(/N=c2/sc3ccccc3n2C)cc1`, the “% Inhibition @ 10 uM” value came out at 1.59%. Take `NC(=O)c1c(NC(=O)c2ccco2)sc2c1CCCCCC2`: the “% Inhibition @ 10 uM” value was 5.69%.

In the case of `Cc1nc2c(c(C)nn2C)c(C)c1CCC(=O)NCc1cccnc1`, the “% Inhibition @ 10 uM” value is reported as -6.09%. With `CC1CCc2c(sc(NC(=O)c3cc4n(n3)C(C(F)(F)F)CC(c3ccco3)N4)c2C(N)=O)C1` (centres unmarked) the figure was 0.0289%; with `Cn1c2c(c(=O)n(C)c1=O)C(c1cccc(O)c1)C(C#N)=C(N)O2` (centres unmarked), -0.128%.

Take `O=c1oc2ccc(Br)cc2cc1-c1nc(-c2cccnc2)no1`: the “% Inhibition @ 10 uM” value is listed as 5.05%.

On to `NC(=O)c1nn2c(C(F)(F)F)cc(-c3cccs3)nc2c1Cl`, for which the “% Inhibition @ 10 uM” value was -1.66%. In the case of `COc1cc2c3c(c1OC)C1(C=CC(=O)C=C1)CC3N(C)CC2` (centres unmarked), the “% Inhibition @ 10 uM” value is reported as 5.3%.

As for `CCOc1ccc(C(=O)C2=C(O)C(=O)N(CCOC)C2c2ccccc2)cc1Cl` (centres unmarked), the “% Inhibition @ 10 uM” value is reported as -1.89%. With `COc1cccc(N2C(=O)CC(N3CCN(Cc4ccc5c(c4)OCO5)CC3)C2=O)c1` (centres unmarked) the figure was -0.992%. On to `COc1cc(C=C2C(=O)NC(=O)NC2=O)cc(Cl)c1OCCOc1ccccc1`, for which the “% Inhibition @ 10 uM” value is -0.467%. As for `O=C(NCC1CCCO1)c1ccc(-c2ccccc2)cc1` (centres unmarked), the “% Inhibition @ 10 uM” value was -5.16%. The figure for `Cc1ccc(N2CCN(C3CCSC3)CC2)cc1` (centres unmarked) is -1.75%; for `CCOc1ccc(N(CC(=O)NCc2ccccc2C)S(C)(=O)=O)cc1` it is -1.43%; for `COc1ccc(C)cc1NCc1ccc(C(F)(F)F)cc1` it is -6.08%. The figure for `CCOC(=O)N1CCN(C(=O)c2sc3nc(C)nc(N4CCCCC4)c3c2C)CC1` is -3.93%. The figure for `COc1ccc(CN2CCN(Cc3ccccc3F)CC2)cc1OC` is -9.4%; for `CCC(C)NC(=O)CSc1nc2c(sc3ccccc32)c(=O)n1CCCN1CCOCC1` (centres unmarked) it is 4.65%; for `CC1=CN2C(=N)/C(=C/c3ccc(SC4CCCCC4)o3)C(=O)N=C2S1` it is -1.28%. For `CSc1nc(-c2ccccc2)nn1S(=O)(=O)c1ccc(Cl)cc1`, the “% Inhibition @ 10 uM” value was 0.722%. The figure for `COc1ccc(CN2CC(C(=O)N3CCn4c(nc5ccccc54)C3)CC2=O)cc1` (centres unmarked) is 0.446%; for `CCC(C#N)NC(=O)[C@H](CC(C)C)NC(=O)OCc1ccccc1` (some centres unmarked) it is -1.41%. The figure for `CCCSc1nnc(NC(=O)Cc2coc3c(C)c(C)ccc23)s1` is 4.18%; for `Cc1ccc(OCC(=O)Nc2ccc(S(=O)(=O)N3CCc4ccccc43)cc2)cc1` it is 2.48%. With `CCOC(=O)C1CCN(Cc2ccccc2C(F)(F)F)CC1` the figure was 1.55%; with `CC(C)CC(C(=O)NC1(C#N)CC1)c1cccc(-c2cccc(-c3csc(N4CCNCC4)n3)c2)c1` (centres unmarked), -6.46%; with `COC(=O)C1=C(C)OC(N)=C(C#N)C1c1cc(Cn2cnc3ccccc32)c(C)s1` (centres unmarked), -1.85%. As to `O=C1/C(=C\c2ccc(O)cc2)CC/C1=C\c1ccc(O)cc1`, the “% Inhibition @ 10 uM” value was 0.937%. With `CCOc1ccccc1C(=O)NCC(C)C` the figure was 3.04%; with `CC(C)C[C@H](NC1=NS(=O)(=O)c2ccccc21)C(=O)NCC#N`, -3.48%. Consider `O=c1c2nc3ccccc3n2c(=O)n2c1nc1ccccc12`, for which the “% Inhibition @ 10 uM” value is recorded as -6.09%. The figure for `COCCNC(=O)c1cc2nc(-c3ccccc3)cc(C)n2n1` is -4.27%; for `CCOC(=O)c1c(C)c(-c2ccccc2)n(CC(=O)N2CCN(c3ncccn3)CC2)c1C` it is 6.2%; for `CCC(Oc1ccccc1)C(=O)Nc1ccc(F)cc1F` (centres unmarked) it is 2.78%. For the molecule `COc1cc(C(=O)NC2(C(F)(F)F)C(=O)NC(C)=C2C#N)cc(OC)c1OC` (centres unmarked), the “% Inhibition @ 10 uM” value is listed as -1.52%. The figure for `O=C(CN1CCCCC1)N1c2ccccc2Sc2ccc(Cl)cc21` is -3.77%; for `Cc1cc(C(=O)N2CCn3c2nc2ccccc23)[nH]n1` it is 0.713%. With `COc1ccc(N(C(C)C(=O)Nc2cc(OC)ccc2OC)S(C)(=O)=O)cc1` (centres unmarked) the figure was -15.1%; with `COc1cccc(C2NC(C(=O)O)Cc3c2[nH]c2ccccc32)c1O` (centres unmarked), 3.31%; with `O=C1OC(c2ccccc2F)=N/C1=C/c1cccc2ccccc12`, -0.0894%.

`CC1(C)Cc2occc2C(NC(=O)CCC(=O)O)C1` (centres unmarked): the “% Inhibition @ 10 uM” value is -1.55%. With `O=C(Nc1ccccc1)N1CCCC1` the figure was -4.94%; with `Cc1cc(C)cc(Oc2nc3c(C)cccn3c(=O)c2/C=C(\C#N)C(=O)N2CCOCC2)c1`, 0.315%. With `COc1cccc(OCCCCN2CCCCC2)c1` the figure was -1.05%. With `Clc1ccc(OCCCN2CCCCC2)c2ccccc12` the figure was -0.833%; with `CCCC(NC(=O)C(Cc1c(F)cccc1F)NC(=O)c1ccc(-c2ccccc2Cl)cc1)C(=O)c1nc2ccccc2o1` (centres unmarked), -0.207%; with `CCC(C)NC(=O)C1CCCCN1S(=O)(=O)c1ccc(F)cc1` (centres unmarked), 2.64%.

For the molecule `COc1cc2nc(O)cc(O)c2cc1OC`, the “% Inhibition @ 10 uM” value is recorded as -0.233%. Consider `Cc1cc(C)cc(NS(=O)(=O)c2ccc(NS(=O)(=O)c3ccc(Cl)cc3)cc2)c1`, for which the “% Inhibition @ 10 uM” value was -1.11%. The figure for `Cc1cc(C)n(-c2ccc(CC(=O)O)cc2)c(=O)n1` is 1.9%; for `O=C1NC(=O)/C(=C\c2cccc(C(F)(F)F)c2)S1` it is 4.54%. With `COC(=O)c1sccc1NC(=O)c1cnn(-c2ccc(C)cc2)c1-n1cccc1` the figure was -7.05%. With `COc1ccc(C2CC(=O)C(/C=N/c3ccc(Br)cc3)=C(O)C2)cc1` (centres unmarked) the figure was -1.84%; with `CC1(C)CC(NS(=O)(=O)c2ccccc2)CC(C)(CNS(=O)(=O)c2ccccc2)C1` (centres unmarked), 5.97%. As for `O=C(NCc1ccc2c(c1)OCO2)c1cc(-c2ccccc2F)no1`, the “% Inhibition @ 10 uM” value was -2.07%. The figure for `COc1ccc(S(=O)(=O)N2CCC(C(=O)Nc3ccc(NC(C)=O)cc3)CC2)cc1` is -1.07%; for `Cc1cccc(OCCn2cnc3ccccc32)c1` it is 2.73%. As to `COc1ccc(-c2cn3nc(N4CCCC(C(=O)N(C)Cc5ccccc5)C4)sc3n2)cc1` (centres unmarked), the “% Inhibition @ 10 uM” value amounted to 3.21%. The figure for `O=C(CCN1C(=O)c2cccc3cccc(c23)C1=O)N1CCN(c2ccccc2F)CC1` is -3.12%; for `CCCc1cc(O)n2nc(NCc3ccccc3C)nc2n1` it is -4.19%. Take `O=C(c1ccccc1)N1CC(COc2ccccc2)OC(c2ccccc2O)O1` (centres unmarked): the “% Inhibition @ 10 uM” value is reported as -1.98%.

In the case of `O=C(Nc1cccc(Cl)c1Cl)c1ccccc1Br`, the “% Inhibition @ 10 uM” value came to 1.4%.

Take `CC1CCN(C(=O)CSc2ncnc3sc4c(c23)CCCC4)CC1`: the “% Inhibition @ 10 uM” value is reported as 0.161%. The figure for `O=C(O)C1CCN(c2nc3ccccc3n3cccc23)CC1` is 3.04%; for `O=C1C(Cl)=C(Nc2ccccc2O)C(=O)N1c1ccc(Br)cc1` it is 2.36%; for `N#CCNC(=O)C(CC1CCCCC1)C(=O)N1CCc2ccccc21` (centres unmarked) it is -6.98%. Regarding `Cn1c(=O)[nH]c(=O)c2c1nc(N1CCOCC1)n2CC(O)COc1cccc2ccccc12` (centres unmarked), the “% Inhibition @ 10 uM” value is reported as -10.9%. With `CCCCCNC(=O)c1cc2c(=O)n3cccc(C)c3nc2n1C` the figure was -5.01%; with `CCCC(C)NC(=O)c1cccc(OC)c1` (centres unmarked), -6.77%.

On to `CC(=C1C(=O)c2ccccc2C1=O)N1CCC(Cc2ccccc2)CC1`, for which the “% Inhibition @ 10 uM” value is listed as -0.169%.

Turning to `CN1C(=O)COc2ccc(-c3cn(C)c(=O)c4ccccc34)cc21`, the “% Inhibition @ 10 uM” value turned out to be 4.77%.

On to `O=C(CCc1ccccc1)Nc1c2c(nn1-c1ccc(Cl)cc1)CS(=O)(=O)C2`, for which the “% Inhibition @ 10 uM” value was found to be 3.8%. The figure for `COc1ccc(-c2nc(CSc3nncn4c3cc3sccc34)c(C)o2)cc1` is 5.18%; for `COc1ccc(-n2cc(Cl)nc(N3CCC[C@H]3C(=O)O)c2=O)cc1` it is -0.25%; for `Cc1cc(O)c2c(C)c(CC(=O)NCCc3ccccc3)c(=O)oc2c1` it is 4.13%.

Turning to `Cc1ccc(C2=NC3(CCN(C(=O)c4ccc5c(c4)OCO5)CC3)NC2=O)cc1`, the “% Inhibition @ 10 uM” value is listed as 2.36%. The figure for `COc1ccccc1COC(=O)N[C@@H](CC(C)C)C(=O)NCC#N` is 12.5%. With `COc1cccc(S(=O)(=O)Nc2ccc3c(c2)OCCO3)c1` the figure was -3.29%; with `Brc1ccc(OCCCCCCN2CCCC2)cc1`, -0.351%.

For `O=C1c2ccccc2C(=O)N1CCCn1nnc2sc(-c3ccccc3)cc2c1=O`, the “% Inhibition @ 10 uM” value turned out to be 7.04%. The figure for `CS(=O)(=O)n1nc(-c2ccco2)nc1NCc1ccccc1` is 0.248%. The figure for `CCn1c(C)c(C)c2cc(C(=O)NCCC(C)C)ccc21` is 1.78%; for `O=C(CSc1ccccn1)N1CCc2ccccc2C1` it is -0.68%; for `Cc1ccccc1CNC(=O)CCn1c(=O)c2cccn2c2cccnc21` it is 6.15%. With `O=C(/C=C/c1ccc2c(c1)OCO2)Nc1cccc(Cl)c1` the figure was -2.18%; with `Nc1c(C(=O)Nc2ccc3c(c2)OCO3)sc2nc(-c3ccc4c(c3)OCO4)ccc12`, 5.12%; with `O=C1CN(C(=O)C2CCCCC2)C=CN1CCc1ccccc1`, -2.39%.

Turning to `COc1ccc(C(=O)N(C(=O)c2ccc(OC)c(OC)c2)c2cc(C)ccn2)cc1OC`, the “% Inhibition @ 10 uM” value is reported as 0.413%. The figure for `Cc1c(C(=O)N(C)C23CC4CC(CC(C4)C2)C3)c(-c2ccccc2)nn1-c1ccccc1` is -2.56%; for `CCOC(=O)NCCCCNC(=O)c1c(O)oc2ccccc2c1=O` it is 2.25%; for `Nc1ccc(C(=O)C(=O)c2ccccc2)cc1` it is 0.0451%.
